In all, about 310,000 compounds went through this assay and about 2,200 (0.71%) showed an effect of 50% or more. The effect is printed as a negative number. The list shows a part of the results.

The target in the experiment is human ether-à-go-go-related gene (hERG) potassium channel (human, UniProt Q12809). The experiment is described as follows: primary screen, population patch clamp on CHO cells stably expressing hERG.
human ether-à-go-go-related gene (hERG) potassium channel, sequence (Q12809 whole entry, looked up): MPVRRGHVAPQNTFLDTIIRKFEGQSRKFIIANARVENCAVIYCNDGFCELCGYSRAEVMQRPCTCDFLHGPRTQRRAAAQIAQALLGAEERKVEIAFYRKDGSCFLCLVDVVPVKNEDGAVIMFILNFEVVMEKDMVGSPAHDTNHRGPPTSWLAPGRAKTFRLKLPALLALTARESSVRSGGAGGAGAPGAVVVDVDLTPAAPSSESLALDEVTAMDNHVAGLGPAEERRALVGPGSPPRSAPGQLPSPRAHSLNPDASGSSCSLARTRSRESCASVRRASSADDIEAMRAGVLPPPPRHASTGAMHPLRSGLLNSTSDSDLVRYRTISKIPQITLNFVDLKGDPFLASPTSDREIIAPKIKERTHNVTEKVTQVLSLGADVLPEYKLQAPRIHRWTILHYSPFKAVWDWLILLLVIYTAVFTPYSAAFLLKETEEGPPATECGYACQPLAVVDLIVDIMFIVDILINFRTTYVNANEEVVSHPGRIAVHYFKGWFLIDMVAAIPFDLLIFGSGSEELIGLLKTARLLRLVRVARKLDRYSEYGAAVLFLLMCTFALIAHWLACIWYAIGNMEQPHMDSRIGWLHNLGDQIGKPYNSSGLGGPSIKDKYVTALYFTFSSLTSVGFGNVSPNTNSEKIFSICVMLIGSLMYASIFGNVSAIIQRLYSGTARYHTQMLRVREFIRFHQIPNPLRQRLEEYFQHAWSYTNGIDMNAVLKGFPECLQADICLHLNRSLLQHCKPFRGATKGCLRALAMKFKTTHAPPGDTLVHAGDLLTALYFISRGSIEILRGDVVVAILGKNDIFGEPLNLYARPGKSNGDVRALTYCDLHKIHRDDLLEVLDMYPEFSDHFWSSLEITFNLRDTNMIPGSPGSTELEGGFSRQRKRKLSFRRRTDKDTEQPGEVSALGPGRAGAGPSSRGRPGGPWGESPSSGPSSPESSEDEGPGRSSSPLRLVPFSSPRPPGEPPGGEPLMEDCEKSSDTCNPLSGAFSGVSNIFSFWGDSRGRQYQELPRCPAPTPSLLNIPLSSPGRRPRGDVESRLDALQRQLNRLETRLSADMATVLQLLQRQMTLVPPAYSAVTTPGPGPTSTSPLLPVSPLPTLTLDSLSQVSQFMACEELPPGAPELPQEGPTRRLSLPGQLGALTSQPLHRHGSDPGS
With `O=C(NC1CCCc2ccccc21)C1CCN(S(=O)(=O)c2cccc3nonc23)CC1` (stereo not shown), the “hERG current change (%, negative = inhibition) at 1uM” value worked out at 15.7%.
In the case of `O=C(C=C1CCN(c2ncc(C(F)(F)F)cc2Cl)CC1)NNC(=O)Nc1ccc(Cl)cc1`, the “hERG current change (%, negative = inhibition) at 1uM” value amounted to 14.4%.
For `Cc1cccc(NC(=O)c2ccccc2SCc2ccc(F)cc2)n1` the value was 10.9%; for `CC1CCN(S(=O)(=O)Cc2ccccc2Cl)CC1`, 3.71%; for `O=C(c1ccccc1)C1CCN(C(=O)c2ccc(Cl)cc2)CC1`, 3%.
`CCN1CCc2c(sc(NC(=O)c3ccc(S(=O)(=O)N4CC(C)OC(C)C4)cc3)c2C(N)=O)C1` (stereo not shown): the “hERG current change (%, negative = inhibition) at 1uM” value is given as -6.31%.
In the case of `CC(=O)c1ccc(OC(C)C)c(CN2CCCCC2)c1.Cl`, the “hERG current change (%, negative = inhibition) at 1uM” value was 8.34%.
For `CN1CCN(NC(=O)c2ccc(Cl)c(S(=O)(=O)Nc3ccc(Cl)cc3)c2)CC1.Cl` the value was 2.6%; for `Cc1ccc(-n2c(=O)cc(N3CCN(Cc4ccccc4)CC3)[nH]c2=O)cc1`, 10.3%.
In the case of `CCOc1ccc(C)cc1-n1nc2ccccc2n1`, the “hERG current change (%, negative = inhibition) at 1uM” value is recorded as 5.64%.
For `CCN1C(=NCc2ccccc2)N[C@@H](c2ccccc2)[C@H](C(=O)OC)[C@H]1C` the value was 9.98%; for `O=C(CSCC(=O)NC1CCCC1)Nc1ccccc1`, 7.25%.
With `Cc1cc(N2CCN(C)CC2)nc2ccc(NC(=O)CCC(=O)NCCC(C)C)cc12`, the “hERG current change (%, negative = inhibition) at 1uM” value is 13.4%.
For `Cc1cc(C)cc(NC(=O)COC(=O)c2cc(=O)[nH]c(=O)[nH]2)c1` the value was 8.97%.
Turning to `COc1ccc2c(c1)c(C(=O)CN1CCOCC1)c(C)n2C`, the “hERG current change (%, negative = inhibition) at 1uM” value is -1.13%.
On to `CNC(=S)N1CCc2cc(OC)c(OC)cc2C1COc1ccc(OC)cc1` (stereo not shown), for which the “hERG current change (%, negative = inhibition) at 1uM” value is listed as -2.52%.
The value for `COc1ccc(Cl)cc1N1C(=NC(=O)C2CCCO2)SC2CS(=O)(=O)CC21` (stereo not shown) was 16.8%; that for `COc1ccc(CN2CCN(C(=O)c3ccc(F)cc3)CC2)c(OC)c1.O=C(O)C(=O)O` was -2.34%; that for `COc1ccccc1-c1ccc(=O)n(CC(=O)NCc2ccco2)n1` was 19%.
For `Cc1ccccc1CN1C(=O)[C@H]2Cc3c([nH]c4ccccc34)C(C)(C)N2C1=O` the value was 17.1%.
As to `Cc1ncoc1C(=O)N1CCCC(CCC(=O)NCc2ccccc2F)C1` (stereo not shown), the “hERG current change (%, negative = inhibition) at 1uM” value is -8.71%.
The value for `CCOC(=O)c1c(C)[nH]c(C(=O)C(C)OC(=O)c2cnc(C)cn2)c1C` (stereo not shown) was 4.25%.
Take `COc1cc(-c2nc3ccc(C)cn3c2NCc2ccccc2)ccc1SC1CCCCC1.O=C(O)C(F)(F)F`: the “hERG current change (%, negative = inhibition) at 1uM” value is 16.1%.
The value for `C/C(=N\NC(=S)NC(C)C)c1cccc([N+](=O)[O-])c1` was -13.9%; that for `Cc1cnc(-c2nnc(N(C)C(=O)C3CCOC3)s2)cn1` (stereo not shown) was 8.37%.
Take `CN(C)S(=O)(=O)c1ccc(NC(=O)COC(=O)c2n[nH]c3ccccc23)cc1`: the “hERG current change (%, negative = inhibition) at 1uM” value is 6.21%.
The value for `CCN(CC)CCN(C(=O)c1ccc2c(c1)OCCO2)c1nc2ccc(C)cc2s1.Cl` was -1.02%; that for `COCC(=O)NCCSc1c(C)[nH]c2ccccc12` was 9.84%.
For `O=C(COC(=O)c1cccnc1Cl)Nc1cccc(S(=O)(=O)N2CCCCC2)c1` the value was 4.13%; for `CCCCNC(=O)C1CCN(C(=O)C2CCN(S(=O)(=O)c3ccc(C)cc3)CC2)CC1`, 8.91%.
The value for `CC1CN(C(=O)/C(C#N)=C2\N=C(NC(=O)c3ccc(F)cc3)c3ccccc32)CC(C)O1` (stereo not shown) was 15.3%; that for `CCCNC(=S)N1CC2(C)CN(C(=O)C(=O)OCC)CC(C)(C1)C2=O` was 8.3%; that for `COC(=O)[C@H](Cc1ccccc1)NC(=O)Cn1ccc(NC(=O)OCc2ccccc2)nc1=O` was 6.5%.
Regarding `O=S(=O)(c1ccc(Cl)cc1)N1CCN(c2ncccn2)CC1`, the “hERG current change (%, negative = inhibition) at 1uM” value is given as 2.86%.
For `Cc1c(N=c2scc(-c3ccccc3)n2C)c(=O)n(-c2ccccc2)n1C` the value was -2%; for `Cl.OC(CN1C2=NCCCN2c2ccccc21)c1ccc2c(c1)OCO2` (stereo not shown), -68.6%.
The value for `COc1ccc(/C=C(/NC(=O)c2ccco2)C(=O)Nc2ccc(C(C)=O)cc2)cc1` was 20.9%.
For `COc1cccc2cc(C(=O)CS(=O)(=O)c3ccc(Cl)cc3)c(=O)oc12`, the “hERG current change (%, negative = inhibition) at 1uM” value is -3.24%.
The value for `Cc1csc(NC(=O)CSc2nnc(-c3ccncc3)n2C)n1` was 1.39%; that for `COCCC(C(=O)Oc1c(C(C)(C)C)cc(C)cc1C(C)(C)C)c1ccccc1` (stereo not shown) was 13.1%.
Take `CN(NC(=O)c1cccc(Cl)c1)c1nc(-c2ccccc2)nnc1C(F)(F)F`: the “hERG current change (%, negative = inhibition) at 1uM” value was 10.5%.
The value for `CCOc1ccc(S(=O)(=O)NCCC(=O)NC2CCN(Cc3ccccc3)CC2)cc1` was 2.49%; that for `O=C(NCc1ccc(F)cc1)C1CCC(CNc2c(N3CCOCC3)c(=O)c2=O)CC1` (stereo not shown) was 6.89%.
